Where “and” joins values, the source holds several entries; their conditions need not be identical. Identical values can stand only once. The campaign covered roughly 350,000 compounds. About 260 (0.074%) were called active. Inconclusive results, whose numbers are uncertain, are shown with a selection of clear calls. Calls follow the shape of the dose curve; as a rule, active = well fitted inhibition curve with a large enough effect; inconclusive = small, poorly fitted or top-dose-only effect; inactive = no such curve, though single readings can be large or run the other way. A potency beside an inconclusive call is a rough fit, not a confirmed value.
target: Ferritin light chain (Equus caballus) (UniProt P02791); assay: qHTS Assay for Identification of Novel General Anesthetics; settings: apoferritin/1-aminoanthracene competitive binding, fluorescence; activity change, negative = displacement: at 77.5 µM (top of the series); also: nearly all actives have a fitted effect of over 20% in size
In short: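 10 uM apoferritin + 50% sat. 1-AMA, PBS; cpd 10 min RT; Ex380/Em535 endpoint; normalized to free probe vs complex; 4-param Hill fit; propofol titration as pos. ctrl.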
% is scaled to controls: 0 for no effect and ±100 for the full control effect; potency is read from the fitted curve at half-maximal effect; tags tell the direction and shape of the fitted curve.

UniProt P02791, sequence (P02791 whole entry, looked up): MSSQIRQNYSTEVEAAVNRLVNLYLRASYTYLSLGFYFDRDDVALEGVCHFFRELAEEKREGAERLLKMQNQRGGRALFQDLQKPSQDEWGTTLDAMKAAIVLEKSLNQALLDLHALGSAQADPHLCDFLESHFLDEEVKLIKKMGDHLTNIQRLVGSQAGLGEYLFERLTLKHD

Structure (SMILES)	Potency	activity change, negative = displacement
O=C(O)CC/C(=N/NC(=O)CNC(=O)c1ccc2c(c1)OCCO2)c1ccccc1	inconclusive: 22.4 µM [inhibitor, single point]	
O=S(=O)(Nc1ccc(Cl)c(Cl)c1)N1CCOCC1	inconclusive: 31.6 µM [inhibitor, partial curve]	
COC(=O)Nc1ccc2c(c1)Nc1ccccc1CC2	inconclusive: 39.8 µM [inhibitor, single point]	
Oc1ccc2oc3c(c2c1)CCCC3	inconclusive: 22.4 µM [inhibitor, partial curve]	
CC(=O)Nc1nonc1-c1nc2ccccc2n1Cc1ccccc1Br	inconclusive: 14.1 µM [inhibitor, partial curve]	
Clc1ccccc1-c1nnc(-c2cccs2)o1	inconclusive: 39.8 µM [inhibitor, single point]	
Cc1ccc2c(c1)N(C(=O)Nc1cccc3c1CCCC3)CC(C)O2 (configuration not stated)	inconclusive: 2.51 µM [inhibitor, full curve]	
CCOc1cc2[nH]c(=S)n(CCCC(=O)NCc3ccco3)c(=O)c2cc1OCC		inactive: -6.59%
Brc1ccc2nc(SCCOc3ccccc3)[nH]c2c1	inconclusive: 11.2 µM [inhibitor, partial curve]	
CCn1c(=O)cc(SCC(=O)N2CCN(c3ccccc3F)CC2)c2ccccc21	inconclusive: 20 µM [inhibitor, partial curve] and inconclusive: 17.8 µM [inhibitor, partial curve]	
Cc1nn(CC(=O)NCCCc2ccccc2)c(=O)c2cccn12	inconclusive: 12.6 µM [inhibitor, partial curve]	
O=C(NCc1ccccc1C(F)(F)F)C1CC(c2ccccc2[N+](=O)[O-])=NO1 (configuration not stated)		inactive: -18%
O/N=C/c1ccc(OCc2ccccc2)c(Cl)c1	inconclusive: 50.1 µM [inhibitor, single point]	
COC(=O)c1cn(Nc2ncc(C(F)(F)F)cc2Cl)c(=O)c2ccccc12	inconclusive: 11.2 µM [inhibitor, partial curve]	
CCOC(=O)C(/C(C)=N/NC(=O)C1CC1c1ccccc1)C(C)C (configuration not stated)	inconclusive: 28.2 µM [inhibitor, partial curve]	
Cc1ccc(NC(=O)CSCC(=O)Nc2ccc(N3CCOCC3)c(Cl)c2)cc1	inconclusive: 28.2 µM [inhibitor, partial curve]	
CC(=O)N(CCC(Cc1ccccc1)c1ccco1)Cc1ccco1 (configuration not stated)	inconclusive: 28.2 µM [inhibitor, single point]	
Cc1ccc(Oc2ccc(C(=O)NCc3ccncc3)cc2)cc1	inconclusive: 35.5 µM [inhibitor, partial curve]	
O=c1c(-c2c(O)cc(O)c3c(=O)cc(-c4ccc(O)cc4)oc23)c(-c2ccc(O)cc2)oc2cc(O)cc(O)c12	inconclusive: 28.2 µM [inhibitor, single point]	
Cc1c(O)ccc(/C(Cc2ccc3ccccc3n2)=N\O)c1O	inconclusive: 31.6 µM [inhibitor, partial curve]	
O=C(Nc1cccc2ncccc12)c1ccc([N+](=O)[O-])o1		inactive: -1.44%

Structure (SMILES)	Potency	activity change, negative = displacement
Clc1ccc(C2[C@H]3CN(CC4CCCCC4)[C@H](c4ccccc4)C34CC2(c2cccnc2)C4)cn1 (some centres not stated)	inconclusive: 50.1 µM [inhibitor, single point] and inconclusive: 17.8 µM [inhibitor, partial curve]	
C=CCNc1nc(N)c([N+](=O)[O-])c(N2CCCCCC2)n1	inconclusive: 35.5 µM [inhibitor, single point]	
COc1ccc(NC(=O)CN2CCN(CC(=O)Nc3ccc(F)cc3)CC2)cc1Cl		inactive: -2.46%
CN(C)/C=C(\C#N)C(=O)Nc1ccc(F)cc1		inactive: -5.39%
COc1ccccc1NC(=O)COC(=O)c1ccc(S(=O)(=O)NCc2ccco2)cc1	inconclusive: 28.2 µM [inhibitor, partial curve]	
Brc1ccccc1C1=Nn2c(nnc2-c2ccccc2)SC1	inconclusive: 31.6 µM [inhibitor, partial curve]	
CCOC(=O)NC1(NC2CCCCC2)Oc2ccccc2O1	inconclusive: 35.5 µM [inhibitor, partial curve]	
Cc1ccc(NC(=O)CS(=O)CC(=O)NC(C)CCc2ccco2)cc1Cl (configuration not stated)	inconclusive: 11.2 µM [inhibitor, partial curve]	
CNC(=O)c1c(NC(NC(=O)c2ccco2)C(=O)c2ccc(Cl)cc2)sc2c1CCCC2 (configuration not stated)	inconclusive: 14.1 µM [inhibitor, partial curve]	
CCc1ccc(NC(=O)Cn2cnc3sc(C)c(S(=O)(=O)N4CCN(c5ccccc5OC)CC4)c3c2=O)cc1	inconclusive: 3.55 µM [inhibitor, full curve, poor fit]	
Clc1cccc(OCCN2CCN(CCOc3cccc(Cl)c3)CC2)c1		inactive: -8.93%
COc1ccccc1CNC(=O)c1oc2ccc(S(=O)(=O)N3CCCC3)cc2c1C	inconclusive: 8.91 µM [inhibitor, partial curve]	
O=C(CN1C(=O)c2cccnc2Oc2ccc(Cl)cc21)NC1CCCCC1	inconclusive: 28.2 µM [inhibitor, partial curve]	
CC(=O)Nc1ccc(NC(=O)C(C)OC(=O)c2cccc(S(=O)(=O)N3CCCCC3)c2)cc1 (configuration not stated)	inconclusive: 22.4 µM [inhibitor, partial curve]	
O=C1/C(=C/c2ccc(F)c(F)c2)CSc2sccc21	inconclusive: 31.6 µM [inhibitor, single point]	
CC#C[C@]1(O)CC[C@H]2C3CCC4=CC(=O)CCC4=C3[C@@H](c3ccc(N(C)C)cc3)C[C@@]21C (some centres not stated)	inconclusive: 10 µM [inhibitor, partial curve]	
CCCCn1c(NC(=O)C2CCCCC2)nc2ccccc21	inconclusive: 50.1 µM [inhibitor, single point]	
CC1CCN(C(=O)c2ccc3c(Cl)c4c(nc3c2)CCCC4)CC1	inconclusive: 22.4 µM [inhibitor, partial curve]	
Cc1ccc(NC(=O)c2cc(NC(=O)c3ccccc3C(=O)O)ccc2N2CCCCC2)cc1	inconclusive: 35.5 µM [inhibitor, single point]	
COc1ccccc1-c1nc(-c2ccc(C)nc2OC)no1		inactive: 5.21%
CC(C)CC(C(=O)Nc1oc(-c2ccco2)c(-c2ccco2)c1C#N)N1C(=O)c2ccccc2C1=O (configuration not stated)	inconclusive: 39.8 µM [inhibitor, partial curve, poor fit]	

Structure (SMILES)	Potency	activity change, negative = displacement
CCCC(=O)OCC(=O)Nc1cc(Cl)ccc1[N+](=O)[O-]	inconclusive: 31.6 µM [inhibitor, partial curve]	
CCOC(=O)C1=C(C)NC(C)=C(C(=O)OCC)C1/C=C/c1ccccc1		inactive: 35.1%
c1ccc(N2CCN(c3ccccc3)C2c2cccs2)cc1	inconclusive: 17.8 µM [inhibitor, partial curve]	
CC(=O)N(CCC(c1ccccc1)c1ccco1)Cc1cccs1 (configuration not stated)	inconclusive: 25.1 µM [inhibitor, partial curve]	
O=S(=O)(Nc1ccc(Cc2ccncc2)cc1)c1ccc(Br)s1	inconclusive: 14.1 µM [inhibitor, partial curve]	
O/N=C(\c1ccc(Cl)cc1)c1ncc(C(F)(F)F)cc1Cl	inconclusive: 25.1 µM [inhibitor, partial curve]	
CCOC(=O)c1c(C)oc2c1c(C(c1cccnc1)N1CCCCC1)c(O)c1ccccc12 (configuration not stated)	inconclusive: 35.5 µM [inhibitor, partial curve]	
CC(Sc1nnc(N)s1)c1ccccc1Cl (configuration not stated)	inconclusive: 25.1 µM [inhibitor, partial curve]	
COc1ccc2[nH]c3c(N4CC(C)OC(C)C4)ncnc3c2c1 (configuration not stated)		inactive: -12%
Cc1c(OCC(=O)C(C)(C)C)ccc2c(-c3ccccc3)cc(=O)oc12	inconclusive: 15.8 µM [inhibitor, partial curve]	
CCN(CC)S(=O)(=O)c1cc(NC(=O)c2ccc(-n3cncn3)c([N+](=O)[O-])c2)ccc1C	inconclusive: 39.8 µM [inhibitor, single point]	
CCOC(=O)C1(CCOc2ccccc2)CCN(Cc2ccc(-n3cccn3)cc2)CC1		inactive: -5.02%
COc1ccc(C(=O)C2CCCN(Cc3ccc4nonc4c3)C2)c(OC)c1 (configuration not stated)	inconclusive: 35.5 µM [inhibitor, partial curve]	
COc1cc(NC(=O)COC(=O)CSc2cc(C)ccc2C)c(C)cc1[N+](=O)[O-]	inconclusive: 28.2 µM [inhibitor, single point]	
O=C(c1cc(COc2ccc(F)cc2Cl)on1)N1CCN(C2CCCC2)CC1	inconclusive: 28.2 µM [inhibitor, partial curve]	
CCOC(=O)c1oc2c(c1C)-c1nn(Cc3cccc(Cl)c3)cc1CC2	inconclusive: 17.8 µM [inhibitor, partial curve]	
NC(=O)C1CCN(c2ncc(C(F)(F)F)cc2Cl)CC1	inconclusive: 14.1 µM [inhibitor, partial curve]	
O=C(CCCC(=O)OCC(=O)c1ccc(Cl)cc1Cl)Nc1cc(C(F)(F)F)ccc1Cl	inconclusive: 15.8 µM [inhibitor, partial curve]	
Cc1cccc(NC(=O)Cn2c(=O)n(Cc3ccco3)c(=N)c3c4c(sc32)COC(C)(C)C4)c1	inconclusive: 11.2 µM [inhibitor, full curve, poor fit]	
Cc1ccccc1N1C(=O)C(Cl)=C(N2CCCCCC2)C1=O	inconclusive: 14.1 µM [inhibitor, partial curve]	

Source: PubChem BioAssay AID485281 (National Center for Advancing Translational Sciences (NCATS), 2010)
